For the assay, the target named is Genome polyprotein (dengue virus type 2) (UniProt P29990).
[1] abbreviates: Thailand/16681/1984, Concentration 25.0 uM, Number of replicates 1.0.

SMILES strings stand for the structures. Out of some 2,000 compounds screened, about 110 (5.5%) showed an effect of 50% or more. The list shows a part of the results.

`O[C@H]1CCCN(Cc2c[nH]c3ccccc23)C1`: the inhibition (Thailand/16681/1984, Concentration 49.5 uM, Number of replicates 2.0, Standard deviation 1.322977815786229 %) was -1.72%; the inhibition (Thailand/16681/1984, Concentration 99.01 uM, Number of replicates 2.0, Standard deviation 1.2713215002863676 %) was -1.49%; the inhibition (Thailand/16681/1984, Concentration 198.0 uM, Number of replicates 2.0, Standard deviation 2.2915353645990124 %) came out at 0.512%.
`O=Cc1ccc(N2CCC(C(=O)NCCCc3nnc4ccccn34)CC2)cc1`: the inhibition under setting [1] was determined as 13.4%.
As to `C=CCN(Cc1cccc(OC)c1)C(=O)C1CCN(c2ccc(C=O)cc2)CC1`, the inhibition under setting [1] is 13.3%.
On the same count and under the same terms, the figure for `CNC(=O)CC[C@H]1CCCN(C(=O)C2CCN(c3ccc(C=O)cc3)CC2)C1` is 13.1%.
Consider `O[C@@H]1CN(Cc2c[nH]c3ccccc23)CC[C@@H]1c1ccccc1`, for which the inhibition by setting is: (Thailand/16681/1984, Concentration 49.5 uM, Number of replicates 2.0, Standard deviation 0.6047610831853614 %) -4.77%; (Thailand/16681/1984, Concentration 99.01 uM, Number of replicates 2.0, Standard deviation 0.15342767839638968 %) -1.95%; (Thailand/16681/1984, Concentration 198.0 uM, Number of replicates 2.0, Standard deviation 0.5453076639312573 %) 0.64%.
With `COc1ccc(CN2CCC(c3c[nH]c4cccnc34)CC2)cc1`, the inhibition was -5.96% (Thailand/16681/1984, Concentration 49.5 uM, Number of replicates 2.0, Standard deviation 1.0599295140140363 %); -4.03% (Thailand/16681/1984, Concentration 99.01 uM, Number of replicates 2.0, Standard deviation 2.601239089707855 %); -2.13% (Thailand/16681/1984, Concentration 198.0 uM, Number of replicates 2.0, Standard deviation 1.953646229576449 %).
As for `Cc1cnccc1NC(=O)c1cc(C)n(-c2ccccn2)n1`, the inhibition (Thailand/16681/1984, Concentration 49.5 uM, Number of replicates 2.0, Standard deviation 5.212715901800097 %) is -3.94%; the inhibition (Thailand/16681/1984, Concentration 99.01 uM, Number of replicates 2.0, Standard deviation 5.225272038027372 %) is -2.71%; the inhibition (Thailand/16681/1984, Concentration 198.0 uM, Number of replicates 2.0, Standard deviation 4.995398574389316 %) was -1.97%.
Turning to `Cc1cnccc1NC(=O)Cc1csc(Cc2ccccc2)n1`, the inhibition is, setting by setting: (Thailand/16681/1984, Concentration 49.5 uM, Number of replicates 2.0, Standard deviation 3.934890489512347 %) -2.65%; (Thailand/16681/1984, Concentration 99.01 uM, Number of replicates 2.0, Standard deviation 4.001534498297198 %) -2%; (Thailand/16681/1984, Concentration 198.0 uM, Number of replicates 2.0, Standard deviation 7.670814768777193 %) -0.908%.
`O=Cc1ccc(N2CCC(C(=O)N[C@@H](Cn3ccnc3)c3ccccc3)CC2)cc1`: under setting [1], the inhibition was 12.1%.
On to `O=C(O)c1cc(Cl)ccc1NS(=O)(=O)c1ccc(Oc2ccccc2Cl)cc1`, for which the inhibition runs as follows: (Thailand/16681/1984, Concentration 49.5 uM, Number of replicates 2.0, Standard deviation 0.09788858447746204 %) 95.7%; (Thailand/16681/1984, Concentration 99.01 uM, Number of replicates 2.0, Standard deviation 0.14802782416517393 %) 94.6%; (Thailand/16681/1984, Concentration 198.0 uM, Number of replicates 2.0, Standard deviation 0.06255266668592849 %) 91.9%.
Consider `O=Cc1ccc(N2CCC(C(=O)N3CCC(Oc4ccccc4)CC3)CC2)cc1`, for which the inhibition under setting [1] turned out to be 14.2%.
On to `CCOC(=O)c1coc(Cn2ncc(C3CCNCC3)c2C)n1`, for which the inhibition was -2.17% (Thailand/16681/1984, Concentration 49.5 uM, Number of replicates 2.0, Standard deviation 0.4930753063793731 %); -2.76% (Thailand/16681/1984, Concentration 99.01 uM, Number of replicates 2.0, Standard deviation 0.1500208643375571 %); -1.62% (Thailand/16681/1984, Concentration 198.0 uM, Number of replicates 2.0, Standard deviation 1.3014042770263519 %).
For the compound `c1ccc2c([C@H]3CCN(Cc4nc[nH]n4)C3)c[nH]c2c1`, the inhibition was -6.54% (Thailand/16681/1984, Concentration 49.5 uM, Number of replicates 2.0, Standard deviation 0.3403469284934762 %); -5.92% (Thailand/16681/1984, Concentration 99.01 uM, Number of replicates 2.0, Standard deviation 0.28413820544540747 %); -4.6% (Thailand/16681/1984, Concentration 198.0 uM, Number of replicates 2.0, Standard deviation 0.5007224305731898 %).
Turning to `CCc1ccc([N+](=O)[O-])cc1NC(=O)C1CCN(c2ccc(C=O)cc2)CC1`, the inhibition under setting [1] turned out to be 14%.
On the same count and under the same terms, the figure for `N#Cc1ccc(N2CCN(C(=O)C3CCN(c4ccc(C=O)cc4)CC3)CC2)nc1` is 12.9%.
Regarding `Cc1nn(Cc2cn(-c3ccccc3)nn2)cc1C1CCNCC1`, the inhibition (Thailand/16681/1984, Concentration 49.5 uM, Number of replicates 2.0, Standard deviation 0.6922388903184505 %) is -4.44%; the inhibition (Thailand/16681/1984, Concentration 99.01 uM, Number of replicates 2.0, Standard deviation 2.187102807540658 %) is -3.07%; the inhibition (Thailand/16681/1984, Concentration 198.0 uM, Number of replicates 2.0, Standard deviation 0.8904422004610557 %) is -3.77%.
`O=Cc1ccc(N2CCC(C(=O)NCc3noc(-c4cccs4)n3)CC2)cc1`: the inhibition under setting [1] turned out to be 13.1%.
In the case of `COc1cc(Cc2ccc3[nH]ncc3c2)nc(N2CCNCC2)n1`, the inhibition is -2.62% (Thailand/16681/1984, Concentration 49.5 uM, Number of replicates 2.0, Standard deviation 0.6540005719510628 %); -2.08% (Thailand/16681/1984, Concentration 99.01 uM, Number of replicates 2.0, Standard deviation 0.7936485911079066 %); -0.486% (Thailand/16681/1984, Concentration 198.0 uM, Number of replicates 2.0, Standard deviation 0.5575261301449747 %).
Regarding `CC(C)(C)[C@H](NC(=O)C1CCN(c2ccc(C=O)cc2)CC1)c1ccccc1`, the inhibition under setting [1] was found to be 11.9%.
With `O=Cc1ccc(N2CCC(C(=O)NCc3ccccc3OC(F)(F)F)CC2)cc1`, the inhibition under setting [1] was found to be 12.7%.
In the case of `C=CCN(Cc1ccc(F)cc1)C(=O)C1CCN(c2ccc(C=O)cc2)CC1`, under setting [1], the inhibition came to 15.3%.
`O=Cc1ccc(N2CCC(C(=O)Nc3ccccc3-c3ccccc3)CC2)cc1`: under setting [1], the inhibition was 12.8%.
Regarding `O=C(OCc1ccccc1)N1C[C@@H](O)[C@H](c2c[nH]c3ccccc23)C1`, the inhibition by setting is: (Thailand/16681/1984, Concentration 49.5 uM, Number of replicates 2.0, Standard deviation 1.2469984697170335 %) 4.73%; (Thailand/16681/1984, Concentration 99.01 uM, Number of replicates 2.0, Standard deviation 0.5609054328484417 %) 7.82%; (Thailand/16681/1984, Concentration 198.0 uM, Number of replicates 2.0, Standard deviation 1.6111806211551787 %) 8.93%.

These data come from ChEMBL document CHEMBL5606460, “ASAP - DENV-2 NS2B-NS3 protease fluorescence single point” (2024).
